{
  "source": "PubChem BioAssay AID624202",
  "about": "(National Center for Advancing Translational Sciences (NCATS), 2012)",
  "note": "The whole screen tested about 380,000 compounds, of which about 4,000 (1.1%) were called active. Inconclusive results, whose numbers are uncertain, are shown with a selection of clear calls. The call rests on the fitted dose curve; in most records, active means well fitted activation curve with a large enough effect; inconclusive means small, poorly fitted or top-dose-only effect; inactive means no such curve, though single readings can be large or run the other way. A potency beside an inconclusive call is a rough fit, not a confirmed value. Potency means the concentration at half of the fitted maximal effect; tags describe the fitted curve by direction and shape.",
  "data": [
    {"experiment": "qHTS Assay to Identify Small Molecule Activators of BRCA1 Expression; further: nearly all actives have a fitted effect of over 80% in size", "conditions": "MCF7-BRCA1-FFLuc reporter, luminescence, 48 h; activation: at 46.1 µM (top of the series), scaled: vehicle 0%, 10 µM genistein 100% unless noted", "method_in_brief": "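First, MCF7-BRCA1-FFLuc cells (2000/well) attach for 2 h; next, compounds are pin-added and incubated 48 h at 37 °C; finally, luciferase reagent is added and luminescence read after 15 min.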", "values": [
      {"smiles": "CCc1ccccc1NC(=O)C1CCN(c2nn3c(=O)cc(C)nc3s2)CC1", "activation": "inactive: 24%"},
      {"smiles": "C=CCC[C@H](Cc1ccc(F)cc1)C(=O)OC[C@@H](C)NC(=O)[C@@H](CC=C)CC(=O)N[C@@H](CO)Cc1ccccc1", "activation": "inactive: -3.53%"},
      {"smiles": "CCOc1ccc(N=C2NC(=O)S/C2=C\\c2ccc(N(C)C)cc2)cc1", "Potency": "active: 3.16 µM"},
      {"smiles": "NC(=O)NC(=O)C(Nc1ccc(N2CCCCC2)cc1)c1ccccc1", "note": "(stereo not given)", "Potency": "inconclusive: 11.2 µM [activator, partial curve, poor fit]"},
      {"smiles": "O=C(Nc1ccc2c(c1)CCC2)Nc1ccc(F)cc1F", "Potency": "inconclusive: 1.26 µM [activator, full curve, poor fit]"},
      {"smiles": "Cc1ccc(NC(=O)NCc2c(C)nn(C)c2C)cc1Cl", "Potency": "active: 5.01 µM"},
      {"smiles": "CCOC(=O)c1cc(NC(=O)Nc2ccccn2)c(C)nc1C", "activation": "inactive: 43.5%"},
      {"smiles": "CC(SC1=NCCS1)C(=O)Nc1nnc(-c2ccc(Br)cc2)s1", "note": "(stereo not given)", "Potency": "inconclusive: 22.4 µM [activator, single point]"},
      {"smiles": "COc1ccccc1NC(CC(=O)c1ccccc1)C(=O)OCC(=O)c1ccc(Br)cc1", "note": "(stereo not given)", "activation": "inactive: -32.2%"},
      {"smiles": "CCOc1ccc(OCc2ccc(C(=O)NCc3cccnc3)o2)cc1", "Potency": "active: 11.2 µM"},
      {"smiles": "Cc1ccc(NC(=O)c2ccc(OC(=O)c3cc4ccccc4o3)cc2)cc1", "Potency": "active: 3.98 µM"},
      {"smiles": "C=CCN1C=CC(=C/C=C(/C#N)C(=O)OCC)C=C1", "Potency": "inconclusive: 0.631 µM [activator, full curve, poor fit]"},
      {"smiles": "CCOc1cc2nc(-c3ccc(OC)c(OC)c3)nc(N3CCOCC3)c2cc1OC", "activation": "inactive: -89.1%"},
      {"smiles": "Cn1nnc2cc(NC(=O)Nc3ccccc3F)ccc21", "Potency": "inconclusive: 1.12 µM [activator, full curve, poor fit]"},
      {"smiles": "COC(c1ccccc1)c1nnc(CCC(=O)N(C)CCOc2ccccc2)o1", "note": "(stereo not given)", "Potency": "inconclusive: 17.8 µM [activator, partial curve, poor fit]"},
      {"smiles": "COc1ccc(NC(=O)CCC(=O)c2cccs2)c(OC)c1", "Potency": "inconclusive: 35.5 µM [activator, single point]"},
      {"smiles": "Cc1ccccc1NC(=O)c1nnn(-c2ccc3c(c2)OCCO3)c1N", "Potency": "inconclusive: 1.12 µM [activator, full curve, poor fit]"},
      {"smiles": "COc1cccc(CNC(=O)CSc2ccc(-c3cccs3)nn2)c1", "activation": "inactive: 22.8%"},
      {"smiles": "N/C(=N\\OC(=O)c1ccco1)c1ccc(Br)cc1", "Potency": "active: 2.51 µM"},
      {"smiles": "CCc1nnc(NC(=O)CSc2nnc(-c3ccco3)n2CCOC)s1", "activation": "inactive: 27%"},
      {"smiles": "CNC(=S)N/N=C/c1ccc(N(C)C)cc1", "Potency": "inconclusive: 3.16 µM [activator, partial curve, poor fit]"},
      {"smiles": "CCS(=O)(=O)c1ccc2oc(Nc3ccccc3Cl)nc2c1", "Potency": "inconclusive: 0.562 µM [activator, full curve, poor fit]"},
      {"smiles": "O=C(Nc1nccs1)c1ccc(Br)s1", "Potency": "active: 10 µM"},
      {"smiles": "C/C(=N\\OC(=O)c1cccc(C(F)(F)F)c1)c1sc(-c2ccccc2)nc1C", "Potency": "inconclusive: 2 µM [activator, full curve, poor fit]"},
      {"smiles": "Cn1c(=N)n(CC(=O)C(C)(C)C)c2ccccc21", "Potency": "inconclusive: 12.6 µM [activator, partial curve, poor fit]"},
      {"smiles": "Cc1ccc(C(=O)OCC(=O)N2CCCCCC2)c(O)c1", "Potency": "active: 12.6 µM"},
      {"smiles": "O=C(c1ccc(-c2ccccc2Cl)o1)N1CCCC(C(F)(F)F)C1", "note": "(stereo not given)", "Potency": "active: 12.6 µM"},
      {"smiles": "O=C(NCc1ccccc1)c1ccc(-c2ccccc2F)o1", "Potency": "active: 11.2 µM"},
      {"smiles": "COc1ccccc1N1CCN(C(=S)Nc2ccc(F)cc2)CC1", "activation": "inactive: -2.93%"},
      {"smiles": "CCn1ccnc1CN(C)Cc1nc(-c2ccc3c(c2)OCO3)no1", "Potency": "inconclusive: 15.8 µM [activator, partial curve, poor fit]"},
      {"smiles": "Cc1cccc(NC(=O)c2ccccc2O)c1C", "Potency": "inconclusive: 15.8 µM [activator, single point]"},
      {"smiles": "O=C(COc1ccc(-c2ccccc2)cc1)N1CCCC1", "Potency": "active: 12.6 µM"},
      {"smiles": "O=C(N/N=C/c1cccc(Cl)c1Cl)Nc1ccccc1", "Potency": "inconclusive: 28.2 µM [activator, single point]"},
      {"smiles": "Cc1ccccc1NC(=O)COc1ccc2c(c1)OC(C)(C)CC2=O", "Potency": "inconclusive: 31.6 µM [activator, single point]"},
      {"smiles": "Cc1ccc(C)c(NC(=S)NCCSc2ccc(Cl)cc2)c1", "activation": "inactive: -34.3%"},
      {"smiles": "CC1(C)CC(N2CCCC2)=CC(=[N+]2CCCCCC2)C1", "activation": "inactive: -25.9%"},
      {"smiles": "COc1cccc(-c2nnc(-c3ccc(C(F)(F)F)cc3)o2)c1OC", "Potency": "inconclusive: 10 µM [activator, partial curve, poor fit]"},
      {"smiles": "CCN(CC(=O)NCc1ccc(Cl)cc1)C(=O)CCC(=O)c1ccc(F)cc1", "activation": "inactive: 4.28%"},
      {"smiles": "CCOC(=O)CNC(=O)c1sc(NC(=O)c2cccc(F)c2)nc1C", "Potency": "active: 8.91 µM"},
      {"smiles": "O=C(Nc1ccc(N2CCOCC2)cc1)c1cc2c(s1)CCCC2", "Potency": "inconclusive: 10 µM [activator, partial curve, poor fit]"},
      {"smiles": "Cc1ccc(-c2nc3ccc(C)cn3c2Cc2ccccc2C(F)(F)F)cc1", "Potency": "inconclusive: 2.51 µM [activator, partial curve, poor fit]"},
      {"smiles": "COC(=O)c1ccccc1NC(=O)Nc1cc(C(C)(C)C)on1", "Potency": "inconclusive: 1.26 µM [activator, full curve, poor fit]"},
      {"smiles": "C#CCn1cc2c(c1-c1ccccc1)c(=O)n(C)c(=O)n2C", "activation": "inactive: -5.4%"},
      {"smiles": "COC(=O)CC1C(=O)NCCN1C(=O)c1sc2ccccc2c1Cl", "note": "(stereo not given)", "activation": "inactive: 3.42%"},
      {"smiles": "Cc1nc(Nc2ccccc2)sc1C(=O)Nc1ccccc1", "Potency": "active: 6.31 µM"},
      {"smiles": "CCc1ccc(-c2ccc(SCC(=O)NCC3CCCO3)nn2)cc1", "note": "(stereo not given)", "Potency": "active: 2.51 µM"},
      {"smiles": "CCOC(=O)Cc1c(C)nc2c(-c3ccccc3)cnn2c1C", "Potency": "inconclusive: 28.2 µM [activator, single point]"},
      {"smiles": "CC(C)CN1C(=O)C(=O)N(CC(=O)c2ccc3c(c2)OCO3)C1=O", "activation": "inconclusive: 56.9% [activator]"},
      {"smiles": "CC(=O)Nc1ccc(N(C(=O)c2cnccn2)C(C(=O)NC2CCCCC2)c2ccc(O)cc2)cc1", "note": "(stereo not given)", "activation": "inactive: 45.3%"},
      {"smiles": "Cc1ccc(/C(N)=N/OC(=O)Cc2ccccc2)cc1", "Potency": "inconclusive: 14.1 µM [activator, single point]"}
    ]}
  ]
}
